Measurements: patent publication US20100086997A1 (published 2010)

Assays:
[1] = target: T1, human TrkB-Fc fusion protein (human, UniProt Q16620 part only); test: SPR (Biacore 3000), Fc-fused receptor amine-coupled to CM5 chip, ligand in solution, 25 C
T1 construct: Bought from R&D Systems or made in-house; also called HuTrkB; Fc-fused recombinant human TrkB; not shown: Fc part
Experimental: (§1) A standard amine-coupling protocol was used in HBS-EP running buffer at 5 μl/min and involved three steps. […]. First, flow cells were activated with a 7-minute injection of a freshly prepared mixture of 200 mM EDC in 50 mM NHS; this step converted the chip's carboxylic acid groups to reactive esters. Next, receptors were diluted to ˜10 μg/mL in 10 mM sodium acetate buffer at pH 4.5 and coupled to the chip until the desired level had been reached. Finally, excess reactive esters were blocked with a 7-minute injection of 1M sodium ethanolamine-HCl (pH 8.5).
(§2) The Fab fragment of antibody 200.38B8 (38B8) was diluted from 0.7-480 nM in 3-fold increments. Samples were injected for 30 seconds at 100 μl/min allowing dissociation times of up to 10 mins. After each binding cycle, receptor surfaces were regenerated with a mildly acidic cocktail (10 mM glycine-HCl (pH 4.0), 500 mM NaCl, and 20 mM EDTA). […] Kinetic rate constants (kon and koff) were determined by fitting the binding data globally to a mass transport model and binding affinities were calculated from their ratio, KD=koff/kon.

[2] = target: T2, Fc-fused recombinant human TrkA (human, UniProt P04629-2 33-407, limits assumed); test: as above
T2 construct: Bought from R&D Systems or made in-house; not shown: Fc part
Experimental: as §1, §2

[3] = target: T3, Fc-fused recombinant human TrkC (human, UniProt Q16288 32-429); test: as above
T3 construct: Bought from R&D Systems or made in-house; not shown: Fc part
Experimental: as §1, §2

[4] = target: T2, Fc-fused recombinant human TrkA; test: SPR (Biacore 3000), dissociation half-life
Experimental: as §1, §2

T2 sequence (P04629 other isoform, or with tags, fused parts or gaps limits assumed): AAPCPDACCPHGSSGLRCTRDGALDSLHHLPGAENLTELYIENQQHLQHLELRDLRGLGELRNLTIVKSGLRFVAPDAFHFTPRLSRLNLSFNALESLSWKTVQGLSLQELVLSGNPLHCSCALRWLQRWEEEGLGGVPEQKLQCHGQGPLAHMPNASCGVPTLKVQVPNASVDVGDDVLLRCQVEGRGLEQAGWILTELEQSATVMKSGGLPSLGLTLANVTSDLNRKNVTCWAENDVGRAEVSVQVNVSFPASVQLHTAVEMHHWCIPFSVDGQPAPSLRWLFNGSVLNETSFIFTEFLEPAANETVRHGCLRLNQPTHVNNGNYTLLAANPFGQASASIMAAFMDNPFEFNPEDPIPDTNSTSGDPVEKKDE
T1 sequence (Q16620 32-430 limits assumed): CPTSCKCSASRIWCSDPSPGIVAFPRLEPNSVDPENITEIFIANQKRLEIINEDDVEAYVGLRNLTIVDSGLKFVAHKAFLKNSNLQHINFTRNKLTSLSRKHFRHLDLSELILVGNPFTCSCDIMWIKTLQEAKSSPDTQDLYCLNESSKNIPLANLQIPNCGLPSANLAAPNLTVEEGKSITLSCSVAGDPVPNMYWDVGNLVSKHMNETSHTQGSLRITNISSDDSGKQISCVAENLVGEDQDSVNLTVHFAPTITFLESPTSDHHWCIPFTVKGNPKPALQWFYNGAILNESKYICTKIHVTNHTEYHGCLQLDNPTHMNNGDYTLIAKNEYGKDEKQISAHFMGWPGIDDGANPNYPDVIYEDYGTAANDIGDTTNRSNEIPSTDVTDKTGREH

B1: ProNGF (ligand)
chain: not shown
B1 was tested, and the binding result [1] was “no binding”, the Kd [2] was 0.02 nM and the koff [2] was 1.41e-05 s⁻¹. The kon [2] was 716000 M⁻¹ s⁻¹, the binding result [3] was “no binding” and the T1/2 [4] was greater than 1 h.
